Source: the supplement of paper PMC8285479
Structures can show the parent of a compound that is named as a salt. ± gives the standard deviation of the averaged measurements. Over roughly 1,900 compounds, “normalised cell viability (NPI; 0 = phenylarsine oxide control, 1 = DMSO control)” has its median near 1; the lowest 2% begin near 0.039. Some of the results follow.

Tested on: NCI-H1944
Assay: normalised cell viability (NPI; 0 = phenylarsine oxide control, 1 = DMSO control) (fraction of DMSO control); NCI-H1944 is a non-small cell lung cancer line; higher = more viable cells (less compound toxicity)
Conditions: 6 days
[1] = glucocorticoid arm: hydrocortisone 2.75 uM co-treatment, compound 1 µM
[2] = glucocorticoid arm: hydrocortisone 2.75 uM co-treatment, compound 5 µM
[3] = glucocorticoid arm: hydrocortisone 2.75 uM pre-treated 2 days and continued, compound 1 µM
[4] = glucocorticoid arm: hydrocortisone 2.75 uM pre-treated 2 days and continued, compound 5 µM
[5] = glucocorticoid arm: vehicle, compound 1 µM
[6] = glucocorticoid arm: vehicle, compound 5 µM
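Also: CTB read-out in 384-well plates, mean of triplicate wells, normalised per plate against 1 µM phenylarsine oxide and 0.1% DMSO, compounds added 24 h after seeding.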

Row | SMILES | normalised cell viability [1] | normalised cell viability [2] | normalised cell viability [3] | normalised cell viability [4] | normalised cell viability [5] | normalised cell viability [6]
1 | CC[N+](CC)(CC)CCOc1ccc(/C=C/c2ccccc2)cc1 | 0.933 ± 0.016 | 0.324 ± 0.0096 | 0.9873 ± 0.0055 | 0.702 ± 0.038 | 1.013 ± 0.0058 | 0.273 ± 0.036
2 | Nc1nc2[nH]cnc2c(=S)[nH]1 [Thioguanine] | 0.931 ± 0.0046 | 0.423 ± 0.024 | 0.9813 ± 0.0011 | 0.754 ± 0.04 | 0.9133 ± 0.0051 | 0.119 ± 0.011
3 | C=CCc1cccc(/C=N/NC(=O)CN2CCN(Cc3ccccc3)CC2)c1O | 0.989 ± 0.011 | 0.999 ± 0.022 | 1 ± 0.038 | 1 ± 0.022 | 0.9867 ± 0.0068 | 0.991 ± 0.0044
4 | Cc1cccc(C)c1NC(=O)C(C)N (stereo not given) [Tocainide hydrochloride] | 0.987 ± 0.015 | 0.944 ± 0.017 | 0.99 ± 0.01 | 0.954 ± 0.026 | 0.972 ± 0.0027 | 0.9643 ± 0.0071
5 | NC(N)=NC(N)=Nc1cccc(Cl)c1 [1-(m-Chlorophenyl)-biguanide hydrochloride] | 0.9883 ± 0.0095 | 0.968 ± 0.02 | 0.996 ± 0.013 | 0.954 ± 0.011 | 0.97 ± 0.0046 | 0.9693 ± 0.006
6 | Cc1cc(O)c2c(c1)C(=O)c1cccc(O)c1C2=O [Chrysophanic Acid] | 1.005 ± 0.0087 | 1.03 ± 0.01 | 1.027 ± 0.0058 | 1.02 ± 0.01 | 0.997 ± 0.011 | 1.013 ± 0.0058
7 | COc1cc2c(N3CCN(C(=O)Nc4ccc(OC(C)C)cc4)CC3)ncnc2cc1OCCCN1CCCCC1 [Tandutinib (MLN518)] | 1.004 ± 0.0098 | 1.06 ± 0.01 | 1.01 ± 0.011 | 1.04 ± 0.017 | 0.996 ± 0.0069 | 0.9893 ± 0.0095
8 | Cc1cccc(C)c1OCC(C)N (stereo not given) [Mexiletine hydrochloride] | 1.01 ± 0.01 | 1.01 ± 0.032 | 1.013 ± 0.0058 | 1.05 ± 0.073 | 0.998 ± 0.002 | 1 ± 0.013
9 | COc1ccccc1N1CCN(CCCCN2C(=O)c3ccccc3C2=O)CC1 [NAN-190 hydrobromide] | 1 ± 0.011 | 0.9863 ± 0.0092 | 0.999 ± 0.011 | 1 ± 0.019 | 1.007 ± 0.0058 | 1.02 ± 0.017
10 | CN1[C@@H]2CC[C@H]1C[C@@H](OC(=O)c1c[nH]c3ccccc13)C2 [Tropisetron] | 1.02 ± 0.017 | 0.982 ± 0.02 | 1.03 ± 0.01 | 0.985 ± 0.033 | 1.003 ± 0.0061 | 0.9937 ± 0.0065
11 | NC[C@@H]1O[C@H](O[C@H]2[C@@H](O)[C@H](O[C@@H]3[C@@H](O)[C@H](N)C[C@H](N)[C@H]3O[C@H]3O[C@H](CO)[C@@H](O)[C@H](O)[C@H]3N)O[C@@H]2CO)[C@H](N)[C@@H](O)[C@@H]1O [Paromomycin sulfate] | 0.988 ± 0.0076 | 1.01 ± 0.014 | 1.01 ± 0.023 | 0.9793 ± 0.0067 | 0.9853 ± 0.0065 | 0.9797 ± 0.0059
12 | Nc1nc(CC(=O)Nc2ccc(CCNC[C@H](O)c3ccccc3)cc2)cs1 [Mirabegron] | 1.03 ± 0.01 | 1 ± 0.035 | 1.04 ± 0.015 | 1.01 ± 0.015 | 1.017 ± 0.0058 | 1.002 ± 0.0068
13 | CCOc1cc2ncc(C#N)c(Nc3ccc(F)c(Cl)c3)c2cc1NC(=O)/C=C/CN(C)C [Pelitinib (EKB-569)] | 0.588 ± 0.026 | 0.479 ± 0.028 | 0.619 ± 0.016 | 0.525 ± 0.015 | 0.535 ± 0.056 | 0.366 ± 0.041
14 | CCCc1c(-c2ccc(O)cc2)nn(-c2ccc(O)cc2)c1-c1ccc(O)cc1 [1,3,5-tris(4-hydroxyphenyl)-4-propyl-1H-pyrazole] | 1.02 | 1.01 ± 0.012 | 1 ± 0.014 | 1.05 ± 0.015 | 0.9913 ± 0.0055 | 1.01
15 | NC(=O)c1ccc2[nH]ccc2c1 | 0.9987 ± 0.0015 | 0.987 ± 0.01 | 0.992 ± 0.019 | 0.986 ± 0.011 | 0.9897 ± 0.0057 | 0.9927 ± 0.0042
16 | COc1ccc(/C=C/C(=O)Nc2ccccc2C(=O)O)cc1OC [Tranilast] | 1.006 ± 0.0075 | 0.998 ± 0.021 | 1.01 ± 0.03 | 1.01 ± 0.011 | 1.017 ± 0.0058 | 1.01 ± 0.011
17 | CCN(CC)CCNC(=O)c1c(C)[nH]c(/C=C2\C(=O)Nc3ccc(F)cc32)c1C [Sunitinib; Sunitinib Malate; Sunitinib (free base)] | 0.9273 ± 0.0085 | 0.586 ± 0.011 | 0.9643 ± 0.0045 | 0.76 ± 0.033 | 0.999 ± 0.01 | 0.703 ± 0.0078
18 | CCN(CC)CCNC(=O)c1c(C)[nH]c(/C=C2\C(=O)Nc3ccc(F)cc32)c1C [Sunitinib Malate (Sutent)] | 0.99 ± 0.0089 | 0.8647 ± 0.0067 | 1.003 ± 0.0058 | 0.928 ± 0.012 | 0.9927 ± 0.0059 | 0.9927 ± 0.0031
19 | CCN(CC)CCOC(=O)c1cc(Cl)c(N)cc1OC [SDZ-205,557 hydrochloride] | 0.993 ± 0.0061 | 1 ± 0.017 | 1.02 ± 0.023 | 0.993 ± 0.022 | 1.002 ± 0.0076 | 0.9977 ± 0.0021
20 | NC/C=C/C(=O)O [(E)-4-amino-2-butenoic acid] | 0.965 ± 0.014 | 0.9853 ± 0.0025 | 0.999 ± 0.019 | 0.981 ± 0.011 | 0.9743 ± 0.0067 | 0.9727 ± 0.0081
21 | CC(=O)N[C@@H](Cc1c[nH]c2ccccc12)C(=O)OCc1cc(C(F)(F)F)cc(C(F)(F)F)c1 | 0.99 ± 0.01 | 0.996 ± 0.013 | 0.989 ± 0.011 | 0.9775 ± 0.0064 | 0.97 ± 0.011 | 0.9747 ± 0.005
22 | Cn1cnc2c1c(=O)[nH]c(=O)n2C [Theobromine] | 1.027 ± 0.0058 | 1.02 ± 0.021 | 1.02 ± 0.021 | 1.01 ± 0.015 | 1.007 ± 0.0058 | 1.013 ± 0.0058
23 | N#C/C(=C\c1c[nH]c2ccccc12)C(=O)c1ccc(O)c(O)c1 [Tyrphostin AG 808] | 1.013 ± 0.0058 | 1.05 ± 0.021 | 0.872 ± 0.25 | 1.023 ± 0.0058 | 1.005 ± 0.0092 | 1.005 ± 0.0081
24 | CCN(CC)CCNC(=O)c1cc(Cl)c(N)cc1OC [MetoclopraMide HCl] | 1.037 ± 0.0058 | 1.03 ± 0.025 | 1.017 ± 0.0058 | 1.017 ± 0.0058 | 1.007 ± 0.0058 | 1.013 ± 0.0058
25 | CCN(CC)CCNC(=O)c1cc(Cl)c(N)cc1OC [Metoclopramide hydrochloride] | 1.003 ± 0.0058 | 0.996 ± 0.021 | 1.01 ± 0.015 | 1.02 ± 0.081 | 1.003 ± 0.0058 | 1.01
